From the supplement of paper PMC4466236
The full ranking holds about 33,000 sequences; the median of “E-score (dimensionless, -0.5 to 0.5)” is about -0.058, and the highest 2% start at about 0.35. This is one part of the list.

Tested on: MvaT
Assay: PBM 8-mer E-score (mean of HK and ME arrays) (E-score (dimensionless, -0.5 to 0.5)); higher = stronger relative binding preference; most listed sequences are background and not binding sites
In short: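 Reported values are rank-based E-scores, taken as the mean of two universal arrays and parsed with a custom script. Each 8-mer score falls between -0.5 and 0.5. The arrays, ME and HK, were double-stranded 60-mers with a constant 25-mer primer region and a variable 35-mer region covering all 8-mers. They were probed, by an earlier protocol, with full-length P. aeruginosa MvaT carrying an N-terminal glutathione S-transferase fusion.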

| Sequence | PBM 8-mer E-score |
| --- | --- |
| GATGGCTA | -0.202 |
| AAACGAAT | 0.239 |
| AGAACGAC | -0.181 |
| CAGTAAGG | -0.108 |
| CTTAGCGC | -0.211 |
| CGCTCGAC | -0.196 |
| TCGGATCA | 0.0217 |
| CTCCTGAC | -0.205 |
| CAGGTATG | -0.0191 |
| AGTATTGG | 0.0374 |
| ACCGTGCT | -0.0112 |
| GGACCGCC | -0.357 |
| AAAGGATG | 0.00643 |
| AAAAAGCA | 0.107 |
| GAGTTCAC | -0.00454 |
| TACCAATA | 0.211 |
| TCACTACA | -0.065 |
| CCCCCTAA | -0.159 |
| AAAGTCAC | -0.0448 |
| CCACATAG | 0.057 |
| GCGGGACA | -0.181 |
| AGTTACAT | 0.318 |
| CGTGGCGC | -0.165 |
| CTGCTAAA | -0.0825 |
| AGATGGTA | 0.0995 |

| Sequence | PBM 8-mer E-score |
| --- | --- |
| CAAGGGAC | -0.177 |
| CACGGGTA | -0.0426 |
| AAACGTAA | 0.076 |
| ATATCACA | 0.341 |
| ACCCTTAG | -0.0746 |
| TATTCAGA | 0.109 |
| ATCGTTCC | -0.157 |
| AGCGTCTG | -0.104 |
| GTGCCGTA | -0.0875 |
| GGTACGCA | -0.199 |
| GTGCGTCA | -0.114 |
| CAACTAGC | 0.0174 |
| CTTTTAAC | 0.314 |
| CGGACAGA | -0.095 |
| ATCCAGCC | -0.0761 |
| CTTATGTA | 0.223 |
| TAACGTAA | 0.266 |
| ACACGCGA | -0.123 |
| CCCGGACA | -0.0952 |
| TAGATTCA | 0.0808 |
| AAAGTCCG | -0.0802 |
| AACTTGGT | 0.032 |
| AGACTGAA | -0.0306 |
| CCCGTTCG | -0.309 |
| ACCTCCAT | -0.0488 |

| Sequence | PBM 8-mer E-score |
| --- | --- |
| GTCGGTCA | -0.0851 |
| CACGAGAC | -0.108 |
| CCGAACTA | -0.0158 |
| ATTCAGAG | -0.0133 |
| CGTATCAG | -0.0119 |
| AGAATCGA | 0.0194 |
| ACGCCTAG | -0.288 |
| AAACGGTT | 0.11 |
| CGGGTCAC | -0.129 |
| GCCGTACA | -0.0973 |
| CCCGCATA | 0.00227 |
| ATTTCTGC | 0.125 |
| CTTAAGCA | 0.049 |
| AGAGAGGA | -0.0774 |
| CCGCCAAC | -0.288 |
| GTGAGAAA | 0.0298 |
| CCACGGGG | -0.309 |
| AAACAACC | -0.0684 |
| GTTAGAAA | 0.0908 |
| AAAGAGTT | 0.218 |
| AATTATTG | 0.351 |
| GAGGAGGA | -0.315 |
| CCCTGCCG | -0.245 |
| GTGTCGTA | 0.0576 |
| ACCGGTAA | 0.104 |

| Sequence | PBM 8-mer E-score |
| --- | --- |
| AATATGAC | 0.183 |
| CCTATTAA | 0.249 |
| ACCGTTAG | -0.0269 |
| AGCCAATG | -0.164 |
| CTCTCAGA | -0.134 |
| ACTCGTGG | -0.112 |
| CAGATAAC | 0.149 |
| ATGAAACA | 0.181 |
| AGCAGCAC | -0.0433 |
| TACAACTA | 0.273 |
| GACCAGCC | -0.256 |
| AGGGGTCG | -0.192 |
| CTGCTGAA | 0.0158 |
| CTGTCGTC | -0.221 |
| AGTGTCAC | -0.0041 |
| AACACTAT | 0.293 |
| GGATGACC | -0.251 |
| AGAGTAAG | 0.0917 |
| CCGTGCAA | 0.056 |
| ACTCAATA | 0.222 |
| GAATCGAA | 0.174 |
| CATGTACG | -0.0455 |
| CAGTCAGC | -0.0796 |
| CTTCAAAA | 0.169 |
| AAAATGGA | -0.00662 |

| Sequence | PBM 8-mer E-score |
| --- | --- |
| ATAGTATA | 0.38 |
| AATAGGAC | -0.0549 |
| AATCGTAC | -0.0592 |
| GCTTTATA | 0.207 |
| GCAATAAC | 0.138 |
| GACCGACA | 0.0473 |
| AATGTATA | 0.366 |
| GCATGGAA | -0.131 |
| CAGCGTTC | -0.186 |
| ACACCGAA | -0.0354 |
| AGCGTCTA | 0.00422 |
| GTCCGTCA | -0.153 |
| AGAAACCT | -0.0335 |
| ACGTGACA | -0.00736 |
| ACTGGACA | -0.0714 |
| GACCGAGC | -0.253 |
| ACTACTCT | 0.113 |
| GCAGGAAA | 0.0142 |
| TGATGAAA | 0.0196 |
| GTGCGAGA | 0.0328 |
| CGGTCGAG | -0.192 |
| CTCTCTCC | -0.0794 |
| CCGGTAGC | -0.144 |
| CTCAGTTA | 0.106 |
| CGAAGAAC | -0.157 |

| Sequence | PBM 8-mer E-score |
| --- | --- |
| AGTCTCTA | -0.00977 |
| AATTAGTA | 0.384 |
| ATTGCACG | 0.182 |
| CTCCCTGC | -0.353 |
| ACACCTCG | 0.0162 |
| GAGGACGA | -0.332 |
| ATGCGGTG | 0.0441 |
| CCTTGAAA | -0.0973 |
| GAACCATA | 0.114 |
| AAGGCACT | -0.132 |
| TGAGACAA | 0.0145 |
| TGAGTACA | 0.063 |
| ATAAGCAA | 0.214 |
| CCATTGCG | -0.171 |
| CCCTATGA | -0.138 |
| CTCATTAA | 0.196 |
| TCATTGGA | -0.0649 |
| CCATCGGG | -0.336 |
| AGGTGCAG | -0.248 |
| AGTTGTGC | 0.0313 |
| CCGATTCC | -0.181 |
| GGCTGGTA | -0.0575 |
| GAATTCTC | 0.0201 |
| AGAGCCCA | -0.156 |
| GATCCACC | -0.131 |

| Sequence | PBM 8-mer E-score |
| --- | --- |
| AACGTGGT | -0.121 |
| ATACTGGC | -0.0191 |
| GAAAGCCC | -0.331 |
| ATGAAGAA | 0.111 |
| GCTCATAC | -0.145 |
| CCAGTATA | 0.0458 |
| CCTTAAAA | 0.0816 |
| ATCCATAG | -0.0748 |
| AGTCTATG | 0.142 |
| ATCAAGCA | 0.0739 |
| TATGACGA | 0.123 |
| CTGCGGTC | -0.29 |
| AGGACGCG | -0.171 |
| CACGACCG | -0.161 |
| AGCTCGCG | -0.171 |
| ACGCCGAG | -0.173 |
| GAGTCGGA | -0.113 |
| GGTGCAAC | -0.14 |
| ACAAGTTA | 0.338 |
| ACGTCTGC | -0.211 |
| AAAAGACG | 0.148 |
| ATTATCTC | 0.157 |
| CAGTAGAG | -0.108 |
| CTGGCAAG | -0.117 |
| AGCTTATG | 0.045 |

| Sequence | PBM 8-mer E-score |
| --- | --- |
| ATTGTTAC | 0.192 |
| CGGTTCGA | -0.108 |
| AGAGCCGG | -0.212 |
| TAAGGAAA | 0.184 |
| CCTGGTGA | -0.262 |
| AAGTGACT | 0.00519 |
| AACCCGAC | -0.155 |
| CAATCTCC | -0.109 |
| CGGGCGGC | -0.242 |
| GCCAGAGC | -0.213 |
| GGCGCAAA | 0.0382 |
| AGCCCAAA | -0.0757 |
| CCCGCCAA | -0.221 |
| AAACTCAA | 0.17 |
| CGAAGCGA | -0.121 |
| ATGTTTCC | 0.125 |
| CGTGGGTC | -0.286 |
| AGAGGGAC | -0.267 |
| ACAGCAGT | -0.0577 |
| ACCAAAGG | -0.0363 |
| CGTTTTAA | 0.23 |
| GCGCGGAC | -0.278 |
| GTAATTTA | 0.388 |
| CCCTGGTC | -0.267 |
| CCCAATGC | -0.147 |

| Sequence | PBM 8-mer E-score |
| --- | --- |
| ACCTGAAT | 0.0683 |
| CGGATGGC | -0.274 |
| ACATTTTA | 0.309 |
| GCGTTCGA | -0.085 |
| CTAGATTC | -0.154 |
| CTAACTCA | 0.084 |
| ATCGAACA | 0.0838 |
| AACGGTTG | 0.0528 |
| ATTCGGGC | -0.0943 |
| CTACTCAC | -0.0655 |
| ACTCCACA | 0.0902 |
| AAAGTGAA | 0.107 |
| AGACGGAA | -0.184 |
| ACGAATTA | 0.256 |
| TCCCTAAA | -0.0867 |
| GAGTATAA | 0.273 |
| ACACTACG | -0.101 |
| CAATTGTC | -0.0513 |
| AGTGTCGA | -0.0257 |
